Source: PubChem BioAssay AID1645882 (National Center for Advancing Translational Sciences (NCATS), 2021)
Screen size: about 16,000 compounds; about 120 (0.75%) were called active. Roughly 4% stayed inconclusive and do not appear here. The call rests on the fitted dose curve; in most records, active means well fitted inhibition curve with a large enough effect; inconclusive means small, poorly fitted or top-dose-only effect; inactive means no such curve, though single readings can be large or run the other way. This is one part of the list.

Target: Rap guanine nucleotide exchange factor 3 (Homo sapiens) (UniProt O95398)
Chain of UniProt O95398 (O95398 whole entry, looked up): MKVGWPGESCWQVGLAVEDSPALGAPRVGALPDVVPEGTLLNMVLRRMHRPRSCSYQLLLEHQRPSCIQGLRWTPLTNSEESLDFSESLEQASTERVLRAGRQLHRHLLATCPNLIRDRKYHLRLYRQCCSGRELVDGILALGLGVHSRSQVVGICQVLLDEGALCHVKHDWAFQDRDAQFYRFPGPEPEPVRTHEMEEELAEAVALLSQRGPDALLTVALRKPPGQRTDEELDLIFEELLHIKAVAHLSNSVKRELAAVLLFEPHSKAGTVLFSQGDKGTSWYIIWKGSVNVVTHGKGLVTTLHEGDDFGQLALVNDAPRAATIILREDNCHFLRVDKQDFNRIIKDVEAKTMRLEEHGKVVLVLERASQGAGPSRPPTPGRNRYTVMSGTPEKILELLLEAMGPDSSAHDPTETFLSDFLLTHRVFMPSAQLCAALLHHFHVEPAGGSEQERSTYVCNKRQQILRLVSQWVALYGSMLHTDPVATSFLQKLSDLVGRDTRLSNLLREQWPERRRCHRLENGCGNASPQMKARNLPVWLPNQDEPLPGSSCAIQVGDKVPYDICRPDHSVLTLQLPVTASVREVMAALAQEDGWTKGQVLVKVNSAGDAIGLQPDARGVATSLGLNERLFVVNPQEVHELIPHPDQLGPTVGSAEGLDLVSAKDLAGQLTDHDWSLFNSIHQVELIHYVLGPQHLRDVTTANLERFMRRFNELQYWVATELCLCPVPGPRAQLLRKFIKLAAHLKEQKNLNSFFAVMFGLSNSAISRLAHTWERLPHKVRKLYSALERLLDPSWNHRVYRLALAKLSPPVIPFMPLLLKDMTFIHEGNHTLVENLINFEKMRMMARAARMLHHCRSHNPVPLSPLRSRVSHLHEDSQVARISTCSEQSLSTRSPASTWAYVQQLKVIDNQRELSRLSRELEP
Test: Validation qHTS for antagonist of cAMP-regulated guanine nucleotide exchange factor 3 (EPAC1);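 further: plate controls were DMSO for no effect and ATA control for full effect; nearly all actives have a fitted effect of over 75% in size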
Conditions: EPAC1 Rap1B-BODIPY-GDP exchange, fluorescence; series mostly up to 150 µM; activity change, negative = inhibition: at the top concentration
Procedure, shortened: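 EPAC1 (100 nM) mixed with 250 nM RAP1B-BODIPY-GDP and 50 uM GDP; compounds in concentration series, 5 min at room temperature. Fluorescence (ex 480/em 540 nm) read every 5 min for 30 min; normalized to ATA control and DMSO.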

Activity change, negative = inhibition, inactive:
O=C(c1csnn1)N1CCC2(CCCN(c3ncccn3)C2)CC1 -1.46%
C=C1C(=C/C=C2\CCC[C@]3(C)[C@@H]([C@H](C)/C=C/[C@@H](O)C4CC4)CC[C@@H]23)C[C@@H](O)C[C@@H]1O 4.06%
Nc1ncnc2c1ncn2[C@@H]1O[C@H](CO)[C@@H](O)[C@H]1O
COc1cccc(C(=O)NCC2Cc3c(F)ccc(-c4ncccn4)c3O2)c1OC (stereo unspecified) 9.82%
O=[N+]([O-])c1cccc(/C=C/c2ccccc2)c1 12.2%
c1ccc(CNc2nc(-c3ccc4c(c3)OCO4)nc3ccccc23)cc1 -13.7%
COc1cc(=O)n2c(c1C(=O)NC(C)c1ccco1)CCN(Cc1cc(C)cc(C)c1)CC2 (stereo unspecified) 13.6%
COc1ccc(C(=O)N2CCC3(CCCN(c4ccccc4)C3)CC2)cc1 21.3%
COC(=O)C1CCN(Cc2ccc3c(c2)CN(C(=O)c2ccc(-n4cnnn4)cc2)CCO3)CC1 -21.2%
N[C@H](CO)Cc1cnc[nH]1 10.9%
CN(C)Cc1ccccc1-c1nc(NC2CCNCC2)c2ccccc2n1 2.54%
Cc1ccc(CN2[C@@H](c3ccccc3)COCCS2(=O)=O)cc1 -18.6%
COc1cc2c3cc1Oc1cc(ccc1O)CC1c4c(cc(OC)c(O)c4Oc4ccc(cc4)CC3N(C)CC2)CC[N+]1(C)C (stereo unspecified) 19.4%
Cn1cc(-c2nc3cncnc3n(Cc3ccccc3Cl)c2=O)c2ccccc21 -11.1%
CC1(C)SC2C(NC(=O)C(NC(=O)N3CCNC3=O)c3ccccc3)C(=O)N2C1C(=O)O (stereo unspecified) -1.44%
CC(=O)O[C@@]12CO[C@@H]1C[C@H](O)[C@@]1(C)C(=O)[C@H](O)C3=C(C)[C@@H](OC(=O)[C@H](O)[C@@H](NC(=O)OC(C)(C)C)c4ccccc4)C[C@@](O)([C@@H](OC(=O)c4ccccc4)[C@H]21)C3(C)C
COc1ccc(-c2cn(CC3CCCCC3)nn2)cc1 6.43%
COc1ccc(CNC(=O)C[C@H]2C(=O)N(Cc3ccccc3)C[C@@H]2Cc2ccccc2)cc1 -4.31%
COc1cccc(Nc2ncc3nc(-c4ccc(F)cc4)c(=O)n(C)c3n2)c1 9.55%
CC(CN(C)C)CN1c2ccccc2Sc2ccc(C(F)(F)F)cc21 (stereo unspecified) 12%
CN(CC(=O)O)c1ccc(/C=C/c2ccnc3ccccc23)cc1 17.6%
COc1ccccc1N1CCN(CCN(C(=O)C2CCCCC2)c2ccccn2)CC1 5.61% [at 75.8 µM]
CN1C(=O)CC(c2ccccc2)C1=O (stereo unspecified) 0.508%
COc1cc2c(cc1OC)-c1cc3cc(OC)c(OC)cc3c(=O)n1CC2 11.9%
CC(=O)[C@H]1CC[C@H]2C3CC=C4C[C@@H](O)CC[C@]4(C)C3CC[C@]12C (stereo partly specified) 3.37%
COc1cc(=O)n2c(c1C(=O)NCc1nccs1)CCN(Cc1ccccc1F)CC2 -5.61%
O=c1c(-c2cc(F)cc(F)c2)nc2cnc(Oc3ccccc3)nc2n1C1CC1 17.6%
CN(C)CCN(Cc1ccccc1)c1ccccn1 23.3%
O=C(c1cccc(F)c1)N1CCC2(CCCN(Cc3nccs3)C2)CC1 14.2%
COc1cc(=O)n2c(c1C(=O)N(C)Cc1nonc1C)CCN(C(=O)c1ccc(C)cc1C)CC2 6.14%
CN(C)c1ccc(-c2cncnc2NCc2cccs2)cc1 17.1%
O=C(O)CC(O)(CC(=O)O)C(=O)O
COc1ccc(/C=C/C(=O)NCC2Cc3cc(Cl)cc(-c4ncccn4)c3O2)cc1 (stereo unspecified) -6.18%
Cc1ccnc2ccc(Br)cc12 19.9%
Cc1o[nH]c(=O)c1CC[C@H](N)C(=O)O 11.1%
C/C=C1\C2C=C(C)CC1(N)c1ccc(=O)[nH]c1C2 (stereo unspecified) 1.35% [at 320 µM]
COc1cccc2c(=O)c3ccccc3oc12 20.6%
COc1cc(OC)c2c(=O)c(O)c(-c3ccc(OC)c(OC)c3)oc2c1 16.2%
Nc1nc(NC2CC2)c2ncn([C@@H]3C=C[C@@H](CO)C3)c2n1 11.5%
CNCc1ccccc1 -16.8%
COc1ccc(NC(=O)N2CCC3(CC2)CCN(C(=O)c2cccc(F)c2)CC3)cc1 7.22%
O=C(NNCNNC(=O)c1ccncc1)c1ccncc1 12.8%
C=C1C[C@@]23CC[C@H]4[C@@](C)(CCC[C@@]4(C)C(=O)O)[C@@H]2CC[C@]1(O)C3 -4.87% [at 75.8 µM]
CNC1C(O)C(O)C(CO)O[C@H]1OC1C(O[C@@H]2C(O)C(O)[C@@H](N=C(N)N)C(O)C2N=C(N)N)OC(C)[C@]1(O)C=O (stereo partly specified) 4.86%
O=C(O)Cc1ccccc1Oc1ccc(Cl)cc1Cl 14.1%
COc1cc(OC)cc(OC)c1 17.6%
COc1cc(O)c(C(=O)c2ccccc2)cc1S(=O)(=O)O 21.5%
CCCCC(CC)COC(=O)c1ccc(N(C)C)cc1 (stereo unspecified) -9.76%
COC(=O)C1CCN(Cc2ccc3c(c2)CN(C(=O)C(C)N2CCOCC2)CCO3)CC1 (stereo unspecified) 12.2%
Cn1cc(-c2nc3cnc(N4CCOCC4)nc3n(C3CC3)c2=O)c2ccccc21 2.35%
Cc1cccc(CNc2cc(-c3c(C)noc3C)ncn2)c1 0.103%
O=c1[nH]c(=O)n(C2CC(O)C(CO)O2)cc1F (stereo unspecified) -5.22%
Cc1ccccc1-c1ccc(CN2CCc3nnc(C(NS(C)(=O)=O)C(C)C)n3CC2)cc1 (stereo unspecified) -0.552%
OCC(O)COc1ccc(Cl)cc1 (stereo unspecified) 24.4%
C[C@H](CCC(=O)O)[C@H]1CC[C@H]2[C@H]3C(CC[C@]12C)[C@@]1(C)CC[C@@H](O)C[C@H]1C[C@H]3O (stereo partly specified)
Nc1ccc(/C=C/c2ccnc3ccccc23)c(N)c1 32.5%
O=C(C[N+]1(CC(O)c2ccccc2)CCCCC1)c1ccccc1 (stereo unspecified) -7.98%
COc1cc2c(cc1O)C(Cc1ccc(O)cc1)N(C)CC2 (stereo unspecified) 22.5%
COc1ncc2nc(-c3ccc(F)cc3)c(=O)n(C[C@H]3CCCO3)c2n1 9.82%
COc1cc(CNc2nc(C)c(-c3ccn(CC4CCCN(C)C4)n3)s2)ccc1F (stereo unspecified) 11.6%
COc1cccc(CC(=O)NCC2Cc3cc(Cl)cc(-c4ncccn4)c3O2)c1 (stereo unspecified) 6.54%
CC(=O)Nc1ccc(S[C@@H](CCN2CC[C@H](O)CCC2=O)c2ccccc2)cc1 10.7%
COC(=O)c1ccccc1C(=O)N1CCOc2ccc(CN3CCN(c4ccccn4)CC3)cc2C1 7.29%
N[C@@H](Cc1cc(I)c(Oc2cc(I)c(O)c(I)c2)c(I)c1)C(=O)O
CN1CCN(c2ncnc3ccc(-c4cccnc4)cc23)CC1 10.2%
CC1(C)CCC(C)(C)c2cc(NC(=O)c3ccc(C(=O)O)cc3)ccc21 10.4%
Cc1cc(=O)oc2cc(O)c(O)cc12 1.8%
CN(C)Cc1ccccc1-c1cc(N(C)C)ncn1 18%
COc1ccc(C(=O)N2CCC3(CCN(Cc4ccccc4OC)CC3)CC2)cc1 13%
CN(C)c1ccc(/C=C/c2c(Cl)cnc3ccccc23)cc1 14%
COc1ccccc1CN1CCCC2(CCN(C(=O)c3ccncc3)CC2)C1 17.8%
O=C(Cc1nc2ccccc2[nH]1)N1CCC(n2c(C3CCC3)nc3cccnc32)CC1 14.5%
C[C@@H]1CN(Cc2ccc3c(c2)CN(Cc2coc4ccccc4c2=O)CCO3)C[C@H](C)O1 9.15%
CC1=NN(c2ccc([N+](=O)[O-])cc2)C(=O)C1[N+](=O)[O-] (stereo unspecified) 10.8%
COCCNc1cc(-c2ccccc2CN(C)C)ncn1 18.7%
CN1CCN(c2ncc3nc(CCc4ccccc4)c(=O)n(CCc4ccccc4)c3n2)CC1 -1.33%
Cc1cc(C)c2nccc(C)c2c1 -9.85%
N#Cc1cccc(NC(=O)N2CCC3(CC2)CCN(C(=O)c2ccco2)CC3)c1 1.28%
COCCNc1nc(-c2ccccc2Cl)nc2ccccc12 -2.71%
CCCCC/C=C\C/C=C\CCCCCCCC(N)=O 12.2% [at 15.3 µM]
c1cncc(CNc2nc(-c3cccnc3)nc3ccccc23)c1 9.08%
OCc1cccnc1 36.2%
NC(N)=NCCC[C@H](N)C(=O)O
CC(C)Cc1ccc(CC(=O)O)cc1 19.2%
Cc1cccc(CNC(=O)c2cnn(-c3nccc(-c4cccs4)n3)c2C2CC2)n1 9.17%
CC1(C)CC2/C(CO)=C/C=C/[C@](C)(O)CC[C@]21O (stereo partly specified) 8.31%
COc1cc(C(=S)N2CCOCC2)cc(OC)c1OC 9.42%
O=C(Nc1cccc(N2CCC(NCc3cnn(-c4ccccc4)n3)CC2)c1)c1cccnc1 -0.303%
CC(C)(C)Cn1nc(-c2ccc(Cl)cc2)c2c(N)ncnc21 9.15%
COc1ccccc1Oc1c(NS(=O)(=O)c2ccc(C(C)(C)C)cc2)nc(-c2ncccn2)nc1OCCO -6.58%
COCC(=O)N1CCC2(CC1)CCN(c1ccccc1)CC2 15.3%
CNC(=O)Oc1ccc2c(c1)[C@@]1(C)CCN(C)[C@@H]1N2C 0.731%
Cc1ncc2c(c1CNC(=O)c1ccc3c(c1)OCO3)CCN(C(=O)/C=C/c1ccc(Cl)cc1)C2 0.135%
CN(C)CCC=C1c2ccccc2COc2ccccc21 15.2%
CCC(O)CNC(=O)c1cnn(-c2nccc(-c3cc(C)sc3C)n2)c1C1CC1 (stereo unspecified) 11.3%
CN(C)Cc1ccccc1-c1cncnc1Nc1ccncc1 14.3%
COc1ccccc1CN1CCOc2ccc(CN3CCCCC3CO)cc2C1 (stereo unspecified) -5.06%
CC(C)[N+](C)(CCOC(=O)C1c2ccccc2Oc2ccccc21)C(C)C
O=C(NCc1nnc2n1CCN(Cc1ccc(C(F)(F)F)cc1)CC2)c1ccccn1 16.5%
N[C@@H](CO)C(=O)O
CN1CCC[C@@H]1Cc1c[nH]c2ccc(CCS(=O)(=O)c3ccccc3)cc12 8.07%
O=S(=O)(c1ccccc1)N1CCC2(CC1)CN(c1ccccn1)C2 0.358%
Cc1cnc(C)c(-c2cc(F)cc3c2OC(CNC(=O)Cc2ccccc2C)C3)n1 (stereo unspecified) 15.4%
CN(C)C(=O)c1ccc(-c2ccc3ncnc(NCCN4CCOCC4)c3c2)cc1 5.74%
COC(=O)N1CCC2(CC1)CCN(c1ccncc1)CC2 1.06%
C=C1C(=O)C23C(O)C1CCC2[C@]12COC3(O)C(O)C1C(C)(C)CC[C@H]2O (stereo partly specified) 0.815%
